Experimental data taken from PubChem BioAssay AID1346428 (National Center for Advancing Translational Sciences (NCATS), 2018).
Hit rate of the full screen: of about 48,000 compounds, about 1,200 (2.5%) were called active. About 2% were inconclusive and are not listed.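 The calls were made as follows: active = activation of at least 60% and not above a set upper limit (about 1 call in 100 departs from these limits); inconclusive = activation of 40% to 60%, or above that upper limit; inactive = activation under 40%.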 Some of the results follow.

molecular target: Probable G-protein coupled receptor 32 (Homo sapiens) (UniProt O75388); test: qHTS for Agonists of Human Resolvin D1 Receptor DRV1; conditions: CHO-K1 GPR32 beta-arrestin PathHunter luminescence, 90 min; at 76.9 µM; stronger effect = higher value; zero percent set by DMSO-only wells; also: 0% is about no effect
Sequence of UniProt O75388 (O75388 whole entry, looked up): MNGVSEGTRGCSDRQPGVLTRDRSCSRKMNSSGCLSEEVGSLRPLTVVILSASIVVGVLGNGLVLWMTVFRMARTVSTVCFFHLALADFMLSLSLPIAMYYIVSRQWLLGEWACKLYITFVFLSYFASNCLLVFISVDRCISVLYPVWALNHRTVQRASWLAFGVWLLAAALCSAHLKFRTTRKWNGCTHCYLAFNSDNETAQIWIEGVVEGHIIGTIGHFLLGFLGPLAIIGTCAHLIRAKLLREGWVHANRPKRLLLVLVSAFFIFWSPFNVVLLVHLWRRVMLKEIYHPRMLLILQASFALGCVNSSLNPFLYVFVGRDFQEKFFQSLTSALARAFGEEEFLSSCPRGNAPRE
Procedure, shortened: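 CHO-K1 cells stably expressing ProLink-tagged GPR32 and Enzyme Activator-tagged beta-arrestin were seeded at 2,500 cells/well overnight, exposed to compounds for 90 min at 37 °C, then read by beta-Gal complementation chemiluminescence after 1 h detection reagent.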

Row | Compound | activation
1 | CCC1(O)CC2CN(CCc3c([nH]c4ccccc34)[C@@](C(=O)OC)(c3cc4c(cc3OC)N(C)C3[C@]45CCN4CC=C[C@@](CC)([C@@H](OC(C)=O)[C@]3(O)C(=O)OC)[C@H]45)C2)C1 (some centres not stated) | inactive: -19.5%
2 | Cc1cc(C(=O)Nc2ccc(Cl)cc2)c2c(C)nn(-c3ccccc3)c2n1 | inactive: -6.52%
3 | CCCS(=O)(=O)NCCc1sc2nc(-c3ccc(Cl)cc3)nn2c1C | inactive: 12.9%
4 | CCOC(=O)c1c(NC(=O)c2cc(=O)c3c(C)cc(C)cc3o2)sc(C)c1C | inactive: 9.87%
5 | NC(=O)C1CCN(C(=O)c2ccccc2NC(=O)c2nsc3ccccc23)CC1 | inactive: -14.4%
6 | COc1ccccc1C(=O)NC1(C(F)(F)F)C(=O)NC(C)=C1C#N (configuration not stated) | inactive: -6.01%
7 | COc1ccccc1N1CCN(C(=O)C2CCN(S(=O)(=O)c3cccs3)CC2)CC1 | inactive: 25.8%
8 | CCOC(=O)c1cnc2cc(Cl)c(OC)cc2c1Nc1ccc(Br)cc1C | inactive: 4.41%
9 | C#CCOc1c(Br)cc(C2C(C(=O)OC)=C(C)NC3=C2C(=O)c2ccccc23)cc1OCC (configuration not stated) | inactive: -29.7%
10 | Cc1ccccc1NC(=O)Cn1nnc(C(=O)NCc2ccco2)c1N | inactive: 34.3%
11 | COc1cc(OC)c(NC(=O)c2nn(C)c3c2COc2ccccc2-3)cc1Cl | inactive: 1.9%
12 | O=C(Nc1ccccc1)c1cc2c(-c3ccccc3)nn(-c3ccccc3)c2s1 | inactive: -5.78%
13 | Cc1ccc(-c2nnc(Nc3cccc(Br)c3)c3ccccc23)cc1S(=O)(=O)N1CCN(C)CC1 | inactive: -4.15%
14 | COc1ccc(Cn2nc3n(c2=O)-c2ccccc2OC3)cc1 | inactive: 15%
15 | Cc1ccc(C)c(Cn2c(=O)n(CCc3ccccc3)c(=O)c3c(C)c(C)sc32)c1 | inactive: -1.91%
16 | CSc1ccc(CCNS(=O)(=O)c2cc(-c3cc(C)no3)ccc2C)cc1 | inactive: -10.7%
17 | CCOc1ccc(OC(=O)c2sc3ncn(Cc4cccc(F)c4)c(=O)c3c2C)cc1 | inactive: -6.72%
18 | O=C(CSc1c2c(nc3ccc(Cl)cc13)CCCC2)N1CCN(c2ccc(Cl)cc2)CC1 | inactive: -29.8%
19 | COc1ccc(OC)c(NC(=O)C(Cc2ccccc2)NS(=O)(=O)c2ccc3c(c2)CCC(=O)N3)c1 (configuration not stated) | inactive: 7.4%
20 | CCn1cc2nc(SCc3c(F)cccc3Cl)n(CCc3ccccc3)c(=O)c2n1 | inactive: 16.4%
21 | O=C(COCc1cc(-c2ccc3c(c2)OCO3)on1)Nc1cccc(O)c1 | inactive: -4.75%

Row | Compound | activation
22 | O=C(Nc1ccc(Br)cc1)Nc1nc2c(s1)CCCCCC2 | inactive: 26.4%
23 | CCN(CC)S(=O)(=O)c1ccc2c(c1)N(CC(=O)Nc1cccc(C(C)=O)c1)C(=O)CO2 | inactive: -34.9%
24 | COc1ccc(Cl)cc1S(=O)(=O)Nc1ccc2c(c1)n(C)c(=O)n2C | inactive: 18%
25 | COc1ccc(NC(=O)C(=O)Nc2ccc3nc4n(c(=O)c3c2)CCCCC4)c(OC)c1 | inactive: -7.73%
26 | Cc1cccc(C(=O)n2nc(-c3ccco3)nc2NCc2ccccc2)c1 | inactive: -27.9%
27 | Cc1ncc(CSSCc2cnc(C)c(O)c2CO)c(CO)c1O | inactive: -19.7%
28 | CCC(=O)N1c2ccccc2CC1C(=O)NCCCN1CCN(c2ccc(F)cc2)CC1 (configuration not stated) | inactive: -0.211%
29 | CCOc1ccc(NCc2cccn2-c2nnc(N3CCC(C(=O)NCCc4ccc(OCC)c(OCC)c4)CC3)s2)cc1 | inactive: -32.6%
30 | COCCn1c(C)cc(O)c(C(c2ccc(OC)cc2)N2CCCCC2)c1=O (configuration not stated) | inactive: -7.9%
31 | CC1CN(C(=O)Nc2ccc(C(=O)NCCc3ccc(Cl)cc3)cc2)c2ccccc2S1 (configuration not stated) | inactive: -2.71%
32 | Cc1ccccc1NC(=O)CSCn1nnc2c(=O)[nH]c(Cc3ccc(F)cc3)nc21 | inactive: 9.01%
33 | CC(=O)Oc1cccc2c1C(=O)c1c(OC(C)=O)cc(C(=O)O)cc1C2=O | inactive: 7.4%
34 | Cn1c(C(=O)NCCc2ccccc2)cc2cc(S(=O)(=O)N3CCCCC3)ccc21 | inactive: -11.3%
35 | Cc1cccc(NC(=O)C(=O)NCC(c2cccnc2)N2CCN(Cc3ccccc3)CC2)c1 (configuration not stated) | inactive: -3.2%
36 | CCCC(=O)Nc1ccc2nc(SCCOc3ccccc3)sc2c1 | inactive: 0.627%
37 | CCCN1Cc2cccc(C(=O)Nc3ccccc3F)c2C1=O | inactive: -6.77%
38 | COc1ccc(Cl)cc1NC(=O)c1c(NCc2cccnc2)sc2c1CCCC2 | inactive: -1.03%
39 | CC(C)(C)OC(=O)N1CCC(c2c(C(=O)NCCc3ccsc3)cnn2-c2ccc(F)cc2F)CC1 | inactive: -26.3%
40 | CCOC(=O)c1c(Nc2ccc(OCC)cc2)nnc(-c2ccccc2)c1-c1ccccc1 | inactive: 1.42%
41 | COc1ccccc1C(=O)Nc1nnc(S(=O)(=O)N2CCCCC2)s1 | inactive: 5.74%
42 | CC(C)c1cnc2c(c1SCC(=O)c1ccc(Cl)cc1)c(=O)n(C)c(=O)n2C | inactive: -26.1%

Row | Compound | activation
43 | COc1ccc2ncc3c(-c4ccccc4)nn(-c4ccc(C)c(C)c4)c3c2c1 | inactive: -5.22%
44 | Nc1nc(Cl)nc2c1ncn2[C@@H]1O[C@H](COP(=O)(O)OP(=O)(O)OP(=O)(O)O)[C@@H](O)[C@H]1O | inactive: -2.64%
45 | COc1ccccc1NC(=O)CSc1ncc(CO)n1Cc1ccc(F)cc1 | active: 65.3%
46 | Cc1cc(-c2ccccc2)nc2cc(C(=O)Nc3ccc(Cl)c(Cl)c3)nn12 | inactive: -3.22%
47 | Cc1ccccc1NC(=O)Cn1c(=O)n(Cc2ccco2)c(=O)c2ccc(C(=O)NC3CCCC3)cc21 | inactive: -3.09%
48 | Cc1cccc(N2CCN(C(=O)C3CCN(S(=O)(=O)Cc4ccccc4)CC3)CC2)c1C | inactive: -1.19%
49 | Cc1ccc(C)c(Cn2cc(CCC(=O)NC3CCCCC3)c3ccccc32)c1 | inactive: -18.8%
50 | Cn1c(NCc2ccccc2F)nc2ccccc21 | inactive: 13.9%
51 | COc1cc(Cl)c(C)cc1NC(=O)CSCc1nc(-c2ccc(OC)c(OC)c2)no1 | inactive: -18.7%
52 | Cc1cccc(C)c1NC(=O)C1CCN(S(=O)(=O)c2cccc3nsnc23)CC1 | inactive: -1.79%
53 | N=c1n(CCO)c2ccccc2n1CCOc1ccc(F)cc1 | inactive: 12.1%
54 | CC(=O)c1cccc(-n2c(CCC(=O)O)ccc2-c2ccccc2)c1 | inactive: -10.9%
55 | COc1ccc(OC)c(Nc2cc(C(=O)NCc3ccccc3)c3ccccc3n2)c1 | inactive: -13.5%
56 | COc1ccc(-c2nc(SCC(=O)NC3CCCC3)c(-c3ccccc3)[nH]2)cc1OC | inactive: -24.1%
57 | CCOC(=O)C1CCN(C(=O)c2ccc3c(c2)sc2nc(-c4ccc(OCC)cc4)cn23)CC1 | inactive: 14.5%
58 | Cc1ccc(NC(=O)Cn2ccn(Cc3ccc(Cl)cc3)c(=O)c2=O)cc1C | inactive: -15.1%
59 | COc1ccc(CNC(=O)c2cnn(-c3ccc(C)cc3)c2C2CCN(C(=O)OC(C)(C)C)CC2)cc1 | inactive: -13%
60 | Cc1ccc(-n2ncc3c(Nc4ccc5c(c4)OCCO5)ncnc32)cc1C | inactive: -2.66%
61 | CCOc1ccccc1C(=O)N1CCc2cc(OC)c(OC)cc2C1COc1ccc2c(C)cc(=O)oc2c1 (configuration not stated) | inactive: 8.41%
62 | COc1ccc(/C=C(\NC(=O)c2ccccc2)C(=O)NC2CCCCC2)cc1 | inactive: -6.67%
63 | CCOc1ccc(NC(=O)NC(CC)Cn2nnc3ccccc3c2=O)cc1 (configuration not stated) | inactive: -10.5%

Row | Compound | activation
64 | Cc1ccc(OCCSc2nc3ccccc3n2CCC(=O)O)cc1C | inactive: -9.2%
65 | Cc1nc2ncnn2c(C)c1CCC(=O)NCc1ccc(Cl)cc1 | inactive: -5.38%
66 | O=C(CSc1ncc(S(=O)(=O)c2ccc(Br)cc2)c(=O)[nH]1)NCc1ccccc1Cl | inactive: 22%
67 | CCN1CCN(C(c2ccc(Cl)cc2)c2c(O)cc(C)n(CCOC)c2=O)CC1 (configuration not stated) | inactive: -12.4%
68 | COc1ccc(-c2cc(C(=O)Oc3ccc(Cl)cc3)c3ccccc3n2)cc1 | inactive: -38.6%
69 | Cc1cc(C)cc(N(CC(=O)Nc2ccc(C(F)(F)F)cc2)S(=O)(=O)c2c(C)[nH]c(=O)[nH]c2=O)c1 | active: 112%
70 | CCCCn1cnc2cc(NC(=O)c3cc(OC)c(OC)c(OC)c3)ccc21 | inactive: -8.16%
71 | O=C1C(=O)N(C2CCN(C(=O)c3ccc(F)cc3)CC2)CCN1Cc1ccc(F)cc1 | inactive: -36.1%
72 | CC1CCc2c(sc3nnn(CC(=O)Nc4cccc(C(F)(F)F)c4)c(=O)c23)C1 (configuration not stated) | inactive: -6.9%
73 | COc1ccc(-c2cc(C(F)(F)F)nc(NCc3ccccc3)n2)cc1OC | inactive: -37.6%
74 | COc1cccc(CN2c3ccccc3-c3nc(SCC(=O)Nc4cccc(C)c4)ncc3S2(=O)=O)c1 | inactive: -3.73%
75 | CCOc1ccc(NCc2cccn2-c2nnc(N3CCC(C(=O)NC(C)c4ccccc4)CC3)s2)cc1 (configuration not stated) | inactive: -39.2%
76 | Cc1cccc(OC(C)C(=O)N2CCC(c3nc4ccccc4o3)CC2)c1C (configuration not stated) | inactive: -4.37%
77 | CCc1ccc2oc(-c3cccc(NC(=O)c4ccc(-c5cccc([N+](=O)[O-])c5)o4)c3)nc2c1 | inactive: 34.3%
78 | CCOc1ccc(Br)cc1C1C(C(=O)Nc2ccccc2OC)=C(C)Nc2nnnn21 (configuration not stated) | inactive: -1.53%
79 | CCc1nnc2c3ccccc3nc(Nc3ccc(F)cc3C)n12 | inactive: 19.8%
80 | CCN1C(C(=O)c2ccccc2)=C(OC(=O)c2ccc(Cl)cc2)c2ccccc2S1(=O)=O | inactive: -55.8%
81 | CCOc1cccc(NC(=O)CSc2ncc(-c3ccc(Cl)cc3)[nH]2)c1 | inactive: -15.1%
82 | CC(=O)N1c2ccc(S(=O)(=O)NCCc3cccc(C)c3)cc2CC1C (configuration not stated) | inactive: 40.7%
